PubChem BioAssay AID493005 (National Center for Advancing Translational Sciences (NCATS), 2010)
Fewer than 10 of roughly 340,000 compounds were called active. This list was built around the results that the source calls inconclusive (neither active nor inactive); the mix of calls is not that of the screen. Calls come from the whole dose curve; as a rule, active = well fitted inhibition curve with a large enough effect in the main read-out, with a control signal flat (not every such curve was filed as active); inconclusive = small, poorly fitted or top-dose-only effect, or effect the other way, or a change in a side signal; inactive = no such curve, though single readings can be large or run the other way. Potencies beside an inconclusive call are fits to weak or partial responses and may not hold up. “Side channel” marks fits to a control or component signal instead of the main read-out.
Potency is the fitted concentration of half-maximal effect; tags give direction and shape of the fitted curve or compound fluorescence and quenching.

Each compound was assayed against Tumor susceptibility gene 101 protein (Homo sapiens) (UniProt Q99816) (assay: qHTS Assay for Iinhibitors of HIV-1 Budding by Blocking the Interaction of PTAP/TSG101). Details: Fluorescence polarization, FITC-PTAP peptide / Tsg101 binding; series mostly up to 115 µM.
Chain of UniProt Q99816 (Q99816 whole entry, looked up): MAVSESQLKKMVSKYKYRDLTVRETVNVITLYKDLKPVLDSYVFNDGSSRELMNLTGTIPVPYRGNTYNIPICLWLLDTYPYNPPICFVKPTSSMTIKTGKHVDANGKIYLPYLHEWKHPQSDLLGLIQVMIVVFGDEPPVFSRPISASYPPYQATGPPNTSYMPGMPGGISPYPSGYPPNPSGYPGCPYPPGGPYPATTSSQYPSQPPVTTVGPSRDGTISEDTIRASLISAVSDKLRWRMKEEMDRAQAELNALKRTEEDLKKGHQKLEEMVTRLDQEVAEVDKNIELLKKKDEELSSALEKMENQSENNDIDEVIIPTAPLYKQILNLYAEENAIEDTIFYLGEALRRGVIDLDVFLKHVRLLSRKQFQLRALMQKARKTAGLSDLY
From the text: NIH Molecular Libraries Probe Production Network [MLPCN] NIH Chemical Genomics Center [NCGC] MLPCN Grant: 1 R03 MH087464-01A1 PI Name: Dr. Eric Freed, NCI NCGC Assay Overview: Stages of the HIV-1 replication cycle, specifically virus assembly and release, provide underexploited targets for the development of novel antiviral inhibitors. The late stages of HIV-1 replication are mediated by the Gag precursor protein, Pr55Gag. Expression of Pr55Gag is both necessary and sufficient for the production of virus-like particles from Gag-expressing cells. The Gag protein hijacks key host proteins involved in endocytic machinery of the host cell to promote endosomal processing and viral budding. The budding process requires a direct interaction between a […] (PTAP) motif in the p6 domain of Gag and the cellular endosomal sorting protein known as Tsg101. In this way, the Gag PTAP motif promotes the host cells to recruit viral particles to the plasma membrane where the new viral particles are released, effectively turning the host cells into viral factories. A fluorescence anisotropy assay has been developed to quantitatively measure the PTAP-Tsg101 interaction which can be used to screen for inhibitors of this interaction.
NCGC Assay Protocol Summary: Two uL of the Tsg101 binding domain in buffer (10 mM HEPES pH 7.5; 0.15 M NaCl, 0.01% Tween 20; 3 mM EDTA;0.1 mM TCEP) was dispensed into Greiner black MB 1536-well plates (final concentration 10 uM). Then, 23 nL of compounds or DMSO were delivered to each well using a pin tool. Finally, 2 uL of a FITC-labeled peptide containing the PTAP motif (1) in the same buffer was dispensed (50 nM final concentration) and the binding was allowed to proceed for 20 min. at r.t. Fluorescent polarization was determined using FITC excitation and polarized emission filters on a Perkin Elmer Viewlux. Keywords: Tsg101, PTAP, Gag, HIV, fluorescent polarization, MLSMR, MLPCN, NIH Roadmap, qHTS, NCGC
For `CC(=O)c1ccc2c(c1)c(C#N)c1ccccc1[n+]2[O-]`, the Potency was inconclusive: 7.94 µM [fluorescent, side channel, full curve, poor fit]. With `C/C(=N\N=C(/N)SC1CC(=O)N(c2ccc(Br)cc2)C1=O)c1cccs1` (stereo unspecified) the Potency was inconclusive: 79.4 µM [quencher, side channel, partial curve, poor fit]. For `O=c1cc2oc3cc(O)c(O)cc3c(-c3ccccc3O)c-2cc1O`, the Potency was inconclusive: 22.4 µM [fluorescent, side channel, partial curve, poor fit]. In the case of `COc1ccc2c(c1)c1nc3ccccc3nc1n2CCn1c(=O)oc2ccccc21`, the Potency is reported as inconclusive: 22.4 µM [fluorescent, side channel, full curve, poor fit]. With `COc1ccc(-c2[nH]ncc2CN(CC2CCC(=O)N2)C(C)C)cc1F` (stereo unspecified) the Potency was “inactive”. For `Cc1ccc(-c2nc(NCCCO)c3ccccc3n2)cc1`, the Potency was “inactive”. In the case of `CCOC(=O)c1c(C)oc2c1c(C(c1ccccc1)N1CCOCC1)c(O)c1ccccc12` (stereo unspecified), the Potency is reported as “inactive”. For `COc1cc(CNCCc2ccccc2)cc(Cl)c1OCc1ccccc1`, the Potency was “inactive”. With `Fc1ccc(C2=CC(c3ccc(Br)o3)n3ncnc3N2)cc1` (stereo unspecified) the Potency was inconclusive: 44.7 µM [fluorescent, side channel, partial curve, poor fit]. With `Nc1ccc(-c2c3ccc(=O)cc-3oc3cc(O)ccc23)c(C(=O)O)c1` the Potency was inconclusive: 50.1 µM [fluorescent, side channel, partial curve]. In the case of `COc1cc(NC(=S)NCCC(c2ccccc2)c2ccccc2)cc(OC)c1`, the Potency is reported as inconclusive: 79.4 µM [fluorescent, side channel, partial curve]. For `Cc1ccc(N2CCN(CC(O)COc3cccc4ccccc34)CC2)cc1` (stereo unspecified), the Potency was inconclusive: 89.1 µM [quencher, side channel, single point]. With `COc1ccc(-n2nc(C(=O)NCC(=O)NC(C)C)c3ccccc3c2=O)cc1Cl` the Potency was “inactive”. `COc1cccc(C(=O)Nc2cc([N+](=O)[O-])ccc2N2CCN(C)CC2)c1` was tested, and the Potency was inconclusive: 89.1 µM [fluorescent, side channel, single point]. `CCc1nc(NCC2CCCO2)c(C#N)c2c1COC(C)(C)C2` (stereo unspecified) was tested, and the Potency was “inactive”. `CC(C)(C)CNC(=O)c1cccc2c1C(=O)c1ccc(N3CCCC3)cc1S2(=O)=O` was tested, and the Potency was inconclusive: 79.4 µM [fluorescent, side channel, partial curve]. With `CN1CC=C2C(C#N)=C(N)C(C#N)(C#N)C(Cc3ccccc3)C2C1` (stereo unspecified) the Potency was inconclusive: 79.4 µM [falling, partial curve, poor fit]. `O=C(N/N=C/c1sc2ccccc2c1O)c1ccccc1` was tested, and the Potency was inconclusive: 56.2 µM [fluorescent, side channel, partial curve, poor fit]. For `CCN1CC=C2C(C#N)=C(N)C(C#N)(C#N)C(CCc3ccccc3)C2C1` (stereo unspecified), the Potency was inconclusive: 56.2 µM [fluorescent, partial curve, poor fit]. `O=C(COC(=O)C1=COCCO1)Nc1cccc(Oc2ccccc2)c1` was tested, and the Potency was inconclusive: 63.1 µM [fluorescent, side channel, partial curve, poor fit]. In the case of `Nc1nnnn1/N=C/C(Br)=C/c1ccccc1`, the Potency is reported as “inactive”. With `CC(C)(C)c1cc(-c2nc(N)nc(N)n2)c(O)c(C(C)(C)C)c1` the Potency was inconclusive: 28.2 µM [quencher, side channel, partial curve, poor fit]. With `O=C1N/C(=C/c2ccc(N3CCOCC3)o2)C(=O)N1c1ccccc1` the Potency was inconclusive: 56.2 µM [fluorescent, side channel, partial curve, poor fit]. `Cc1cccc2cc(/C=C3\N=C(c4ccccc4)OC3=O)c(N3CCOCC3)nc12` was tested, and the Potency was inconclusive: 79.4 µM [fluorescent, partial curve, poor fit]. With `Cn1cc(/C=C/c2cc[n+](C)cc2)c2cc(F)ccc21` the Potency was inconclusive: 56.2 µM [fluorescent, side channel, partial curve, poor fit]. In the case of `O=C1Nc2ccc(F)cc2C12Nc1ccccc1-c1nnc(SCc3ccccc3)nc1O2` (stereo unspecified), the Potency is reported as inconclusive: 89.1 µM [fluorescent, side channel, single point]. `Cc1cc(=O)c2c([nH]1)c(C)cc1[nH]c(C)c(C)c12` was tested, and the Potency was inconclusive: 50.1 µM [falling, partial curve, poor fit]. With `O=[N+]([O-])c1ccc(NN=Cc2cccc3ccccc23)nc1` the Potency was inconclusive: 56.2 µM [fluorescent, side channel, partial curve, poor fit]. For `COC(=O)C1=C(C)N(c2ccc(C)c(C)c2)/C(=C/c2ccco2)C1=O`, the Potency was inconclusive: 50.1 µM [fluorescent, side channel, partial curve, poor fit]. For `C(=N\NC1=Nc2cccc3cccc1c23)/c1ccccc1`, the Potency was inconclusive: 79.4 µM [fluorescent, side channel, partial curve, poor fit]. In the case of `CC1(c2nnc(Cc3ccccc3)o2)CC(c2ccc(OC(F)(F)F)cc2)=NO1` (stereo unspecified), the Potency is reported as inconclusive: 22.4 µM [quencher, side channel, partial curve, poor fit]. With `CC(=O)c1cc(NC(=O)c2ccc(C)cc2)c(=O)oc1/C=C/N(C)C` the Potency was inconclusive: 89.1 µM [fluorescent, side channel, partial curve]. For `O=C1NC(=S)N/C1=C/c1ccc2c(c1)OCO2`, the Potency was inconclusive: 79.4 µM [fluorescent, side channel, partial curve]. For `CC(OC(=O)/C(C#N)=C/c1ccc(N(C)C)cc1)C(=O)N(C)c1ccccc1` (stereo unspecified), the Potency was inconclusive: 56.2 µM [fluorescent, side channel, partial curve, poor fit]. With `CCn1c2ccccc2c2cc(NC(=O)c3ccc(=O)oc3)ccc21` the Potency was inconclusive: 56.2 µM [fluorescent, side channel, partial curve, poor fit]. `COc1cccc(-c2nc(CS(=O)(=O)CC(=O)Nc3c(C)cccc3C)c(C)o2)c1` was tested, and the Potency was “inactive”. `CCN1CCN(c2ccc(S(=O)(=O)N3CCOCC3)cc2NC(=O)c2ccc(OCC(C)C)cc2)CC1` was tested, and the Potency was “inactive”. `COc1ccc(/C=C/c2nc3sc4c(c3c(=O)o2)CCC4)cc1` was tested, and the Potency was inconclusive: 56.2 µM [fluorescent, side channel, partial curve, poor fit]. With `COC(=O)c1ccc(C(=O)OC)c(NC(=O)CCC(=O)O)c1` the Potency was “inactive”. With `Cc1[nH]c2ccccc2c1/C=C/c1nc2ccccc2c(=O)n1CCO` the Potency was inconclusive: 50.1 µM [fluorescent, side channel, partial curve, poor fit]. In the case of `CCOC(=O)c1c(CN2CCCCC2)n(C)c2cc(Br)c(O)cc12`, the Potency is reported as “inactive”. For `CCOCCn1c(=NC(=O)c2ccc(S(=O)(=O)N3CCOCC3)cc2)sc2cc(S(N)(=O)=O)ccc21`, the Potency was inconclusive: 79.4 µM [quencher, side channel, partial curve, poor fit]. For `O=C1/C(=C/c2ccc(N3CCCC3)cc2)NC(=S)N1C1CC1`, the Potency was inconclusive: 15.8 µM [fluorescent, side channel, full curve, poor fit]. For `Cc1ccc(NC(=S)NCc2ccccn2)cc1`, the Potency was “inactive”. `COc1ccc(NC(=S)NC(=O)/C=C/c2cccs2)cc1` was tested, and the Potency was “inactive”. In the case of `CCN(CC)c1ccc(/C=C2\SC(=O)N(C(C)C)C2=O)o1`, the Potency is reported as inconclusive: 50.1 µM [fluorescent, side channel, partial curve, poor fit]. For `CC(C)=CCC/C(C)=C/CNC(=O)CC1C[C@H](C(=O)N(C(C)C)C(C)C)[C@@]2(C)c3[nH]c4ccccc4c3CCN2C1=O` (stereo partly specified), the Potency was inconclusive: 39.8 µM [quencher, side channel, partial curve, poor fit]. For `CC[n+]1c(/C=C/C=C/N(C(C)=O)c2ccccc2)sc2cc(OC)ccc21`, the Potency was inconclusive: 56.2 µM [fluorescent, side channel, partial curve, poor fit]. In the case of `CCN1C(=O)[C@H]2[C@@H](c3ccc(-c4ccc(Cl)c(Cl)c4)c(OC)c3)N3CCCC[C@@]3(C(=O)OC)[C@H]2C1=O`, the Potency is reported as “inactive”. With `CCOC(=O)CCSc1nc(C)cc(C(F)(F)F)c1C#N` the Potency was inconclusive: 50.1 µM [fluorescent, side channel, partial curve, poor fit]. In the case of `CCCCCCCCCCCC(=O)N/N=C/c1ccco1`, the Potency is reported as inconclusive: 25.1 µM [quencher, side channel, partial curve, poor fit]. In the case of `CCN(CC)c1ccc(-c2sc(Nc3ccccc3)n[n+]2-c2ccc(F)cc2)cc1`, the Potency is reported as inconclusive: 50.1 µM [fluorescent, side channel, partial curve, poor fit]. For `CCOC(=O)c1ccc(-c2ccc(/C=N/NC(=O)c3cncc(Br)c3)o2)cc1`, the Potency was inconclusive: 31.6 µM [fluorescent, side channel, partial curve, poor fit]. For `Cn1c2ccc(F)cc2c2nc3ccccc3nc21`, the Potency was inconclusive: 70.8 µM [fluorescent, side channel, partial curve, poor fit]. With `COc1ccc(NC(=O)c2cc(-c3ccccc3Cl)on2)cc1OC` the Potency was inconclusive: 56.2 µM [fluorescent, side channel, partial curve, poor fit]. For `CSc1nsc(SC)c1NC(=O)OCCc1ccccn1`, the Potency was “inactive”.
